In PubChem BioAssay AID1768 (National Center for Advancing Translational Sciences (NCATS), 2009):
The whole screen tested about 270,000 compounds, of which about 620 (0.23%) were called active. This list was built around the results that the source calls inconclusive (neither active nor inactive); the mix of calls is not that of the screen. Calls follow the shape of the dose curve; as a rule, active = well fitted inhibition curve with a large enough effect in the polarisation, with a control signal flat (not every such curve was filed as active); inconclusive = small, poorly fitted or top-dose-only effect, or effect the other way, or a change in a side signal; inactive = no such curve, though single readings can be large or run the other way; the % refers to the polarisation. Potencies beside an inconclusive call are fits to weak or partial responses and may not hold up. “Side channel” marks fits to a control or component signal instead of the main read-out.

target: Menin (Homo sapiens) (UniProt O00255); assay: qHTS Assay for Inhibitors Targeting the Menin-MLL Interaction in MLL Related Leukemias: Competition With Texas Red Labeled MLL-derived Mutant Peptide; conditions: fluorescence polarization; series mostly up to 61.6 µM
Potency is read from the fitted curve at half-maximal effect; tags tell the direction and shape of the fitted curve or compound fluorescence and quenching.

UniProt O00255, sequence (O00255 whole entry, looked up): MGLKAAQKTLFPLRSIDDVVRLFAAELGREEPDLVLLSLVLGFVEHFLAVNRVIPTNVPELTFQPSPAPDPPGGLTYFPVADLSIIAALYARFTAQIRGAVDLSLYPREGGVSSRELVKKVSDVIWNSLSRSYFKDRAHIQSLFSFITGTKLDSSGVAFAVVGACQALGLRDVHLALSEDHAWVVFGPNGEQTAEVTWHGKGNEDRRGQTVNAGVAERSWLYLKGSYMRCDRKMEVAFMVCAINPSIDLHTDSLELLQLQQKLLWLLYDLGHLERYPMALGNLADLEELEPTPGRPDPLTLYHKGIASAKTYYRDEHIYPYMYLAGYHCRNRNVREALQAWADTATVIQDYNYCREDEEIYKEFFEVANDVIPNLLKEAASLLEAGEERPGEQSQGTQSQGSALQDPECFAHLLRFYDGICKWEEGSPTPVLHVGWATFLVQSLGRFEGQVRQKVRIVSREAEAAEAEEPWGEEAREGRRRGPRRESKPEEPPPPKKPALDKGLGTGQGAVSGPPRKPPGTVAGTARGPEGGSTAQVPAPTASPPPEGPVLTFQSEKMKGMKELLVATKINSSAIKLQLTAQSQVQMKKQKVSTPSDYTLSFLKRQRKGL

Potency, inactive:
O=C(O)CCC(=O)N1CCc2c([nH]c3ccccc23)C1C(F)(F)F (centres undefined)
CCCOC(=O)N1CCN(/[N+]([O-])=N/Oc2ccc([N+](=O)[O-])cc2[N+](=O)[O-])CC1
CC(C)C[C@@H](COc1ccccc1)N1CCN(CC(C)C)CCC1=O
CCN1CCN(CC(=O)N2CCCC(C(=O)c3ccc(Oc4ccccc4)cc3)C2)CC1 (centres undefined)
O=C(NC1CCN(CC(=O)N(c2ccccc2)c2ccccc2)CC1)c1ccc([N+](=O)[O-])cc1
CNc1nc(NCc2ccccc2)c2ccccc2n1
Cc1cc2ccccc2c(=O)n1CC(=O)NCc1ccco1
O=C(CCC(=O)N1CCOc2ccc(Cl)cc21)NCCCN1CCC(Cc2ccccc2)CC1
O=C(COC(=O)c1cccnc1Cl)NCCC1=CCCCC1
CCOc1ccccc1NS(=O)(=O)N(C)C

Potency, inconclusive:
COc1cccc(CNCc2ccccc2Br)c1OC 14.1 µM [inhibitor, partial curve, poor fit]
Cc1cccc(NC(=S)NC(=O)/C=C/c2ccco2)c1 31.6 µM [quencher, side channel, partial curve]
Cn1c(-c2ccc(Cl)nc2)nc2ccccc21 35.5 µM [fluorescent, side channel, partial curve]
NC(=O)c1ccc(NCC2COc3ccccc3O2)c([N+](=O)[O-])c1 (centres undefined) 25.1 µM [quencher, side channel, single point]
O=C(Nc1ccc([N+](=O)[O-])cn1)c1cc(-c2cccc(Cl)c2)nc2ccccc12 17.8 µM [quencher, side channel, single point]
Cc1ccc(S(=O)(=O)c2c(N)n(/N=C/c3ccco3)c3nc4ccccc4nc23)cc1C 3.55 µM [quencher, side channel, single point]
COc1cccc(C2=Nc3cccc4cccc(c34)N2)c1 8.91 µM [quencher, side channel, full curve]
CCCNC(=O)OC[C@H]1O[C@H](CCO/N=C/[C@@H](OC)[C@H](C)/C=C/CC(=O)OC)C=C[C@@H]1Oc1ccc(OC)cc1 0.794 µM [fluorescent, side channel, full curve]
COC(=O)CCCCCN1C(=O)NC(CC2CC2)C(C(=O)OCc2ccccc2)=C1C (centres undefined) 3.16 µM [fluorescent, side channel, full curve]
COc1nc(Nc2ccc([N+](=O)[O-])cc2)nc(NC2CCCCC2)n1 10 µM [quencher, side channel, partial curve]
CN(CC(=O)O/N=C(\N)c1ccc([N+](=O)[O-])cc1)S(=O)(=O)c1ccccc1 14.1 µM [quencher, side channel, partial curve]
O=C(O)CN1CCN(Cc2ccc(F)cc2Cl)C1=O 39.8 µM [inhibitor, single point]
N#Cc1ccccc1CSc1ccc(-c2nc3ccccc3[nH]2)cn1 3.16 µM [quencher, side channel, full curve]
COc1ccc(CNC(=O)CN(C(=O)c2snc(C(N)=O)c2N)c2ccc(F)cc2)cc1 10 µM [inhibitor, partial curve]
Cc1ccc(N/C=C2/Sc3ccccc3NC2=O)cc1 31.6 µM [quencher, side channel, single point]
CSc1ccc(S(=O)(=O)N2CCC(C(=O)Nc3ccccc3C(F)(F)F)CC2)cc1 39.8 µM [inhibitor, single point]
CC1=NN(c2ccc(C)cc2)C(=O)/C1=C/c1ccc(-c2cc([N+](=O)[O-])ccc2O)o1 3.16 µM [quencher, side channel, full curve]
O=C(N/N=C/c1cccc(Oc2ccccc2)c1)c1cccc(O)c1 28.2 µM [quencher, side channel, single point]
COc1ccc(/C=C2\SC(N3CCCCC3)=NC2=O)cc1OC 22.4 µM [inhibitor, partial curve, poor fit]
CCOC(=O)Cc1c(C)nc2c(-c3ccc(Cl)cc3)cnn2c1C 28.2 µM [quencher, partial curve]
CCOC(=O)Cc1csc(NS(=O)(=O)c2cccc([N+](=O)[O-])c2)n1 3.16 µM [quencher, side channel, single point]
Cc1ccc(Cc2c(C)nc3nc(SCC(=O)NCCCN4CCCC4)nn3c2C)cc1 39.8 µM [inhibitor, single point]
Cc1cc(-c2ccc(Br)s2)nc(-n2cccc2)n1 15.8 µM [quencher, side channel, partial curve]
CCOc1ccc(-c2ccc(SCC(=O)Nc3nnc(C)s3)nn2)cc1 39.8 µM [inhibitor, single point]
N#Cc1c(SCC(=O)Nc2ccccc2C(F)(F)F)sc2c(O)cc(=O)[nH]c12 14.1 µM [quencher, side channel, partial curve]
Nc1ccc(Sc2ccc([N+](=O)[O-])cc2)cc1 20 µM [quencher, side channel, partial curve]
CC(C)(C)c1cc(NC(=O)c2cccc([N+](=O)[O-])c2)no1 35.5 µM [fluorescent, side channel, single point]
CCc1ccc(S(=O)(=O)/N=C2\C=CC(=O)c3ccccc32)cc1 12.6 µM [quencher, side channel, partial curve]
CCc1ccc(-c2nc(NC(=S)NC(=O)c3cccs3)sc2C)cc1 3.55 µM [quencher, side channel, full curve]
Nc1ccccc1C#Cc1ccccc1 7.08 µM [quencher, side channel, partial curve]
COc1ccccc1C(=O)Nc1nnc(S(=O)(=O)N2CCCCCC2)s1 28.2 µM [quencher, side channel, partial curve]
O=C(Cc1cccc2ccccc12)Nc1ccccc1C(=O)O 39.8 µM [quencher, side channel, single point]
Cc1nc(SCC(=O)c2ccccc2)c(C#N)c(-c2ccco2)c1C(=O)NCc1ccco1 28.2 µM [quencher, side channel, single point]
C/C(=N\N=C\c1ccccc1F)c1nnn(-c2nonc2N)c1C 39.8 µM [inhibitor, single point]
Cc1cc(C)nc(NC(=NCCc2c[nH]c3ccccc23)NC(=O)c2ccco2)n1 22.4 µM [quencher, side channel, single point]
COc1cccc(NC(=O)CN(c2ccc([N+](=O)[O-])cc2)S(=O)(=O)c2ccccc2)c1 8.91 µM [quencher, side channel, full curve]
COc1cc(/C=C2\C(=O)N(c3ccc(S(N)(=O)=O)cc3)N=C2C)ccc1OC(=O)c1ccco1 22.4 µM [quencher, side channel, partial curve]
COC(=O)c1sccc1NC(=O)Nc1ccc(OC)cc1OC 11.2 µM [quencher, side channel, partial curve]
CCc1n[nH]c(=S)n1/N=C/c1ccccc1OCc1ccc(Cl)cc1 4.47 µM [fluorescent, side channel, single point]
COc1cc(/C=C2\CCC(C3CCCC3)C2=O)ccc1OC(C)C (centres undefined) 14.1 µM [fluorescent, side channel, partial curve]
O=C(CSc1nc2ccccc2c(=O)[nH]1)Nc1cccc([N+](=O)[O-])c1 25.1 µM [inhibitor, partial curve]
CCOc1ccc(-c2ccc(NS(=O)(=O)c3ccc([N+](=O)[O-])cc3)cc2)nn1 31.6 µM [quencher, single point]
Cc1ccc(Cl)cc1-n1c(SCC(=O)NCCC2=CCCCC2)nc2n[nH]c(C)c2c1=N 20 µM [fluorescent, side channel, partial curve]
CCOC(=O)c1cc(NC(=O)c2ccccc2)c(=O)oc1-c1ccccc1 8.91 µM [inhibitor, single point]
COc1cccc(-c2nc(S(=O)(=O)c3ccccc3)c(N3CCOCC3)o2)c1 39.8 µM [inhibitor, single point]
Cc1ccc(C)c(S(=O)(=O)Nc2ccc3[nH]c(=O)[nH]c3c2)c1 31.6 µM [quencher, side channel, single point]
CCOC(=O)/C(=C\c1ccc(C)cc1)NC(=O)c1ccccc1 20 µM [inhibitor, partial curve]
COc1ccccc1NC(=O)C(C)NC(c1ccccc1)c1ccccc1 (centres undefined) 11.2 µM [fluorescent, side channel, partial curve]
CCN(CC)CCC(c1ccc(N(C)C)cc1)c1c(O)cc(OC)cc1OC (centres undefined) 39.8 µM [inhibitor, single point]
